{"source": "the supplement of paper PMC8728848", "binders": {"B1": {"name": "PVL (Psathyrella velutina), Q309D1_9AGAR (protein)", "chain": "MSVVVISQALPVPTRIPGVADLVGFGNGGVYIIRNSLLIQVVKVINNFGYDAGGWRVEKHVRLLADTTGDNQPDVVGFGENGVWISTNNGNNTFVDPPKMVLANFAYAAGGWRVEKHIRFMADLRKTGRADIVGFGDGGIYISRNNGGGQFAPAQLALNNFGYAQGWRLDRHLRFLADVTGDGLLDVVGFGENQVYIARNSGNGTFQPAQAVVNNFCIGAGGWTISAHPRVVADLTGDRKADILGFGVAGVYTSLNNGNGTFGAVNLVLKDFGVNSGWRVEKHVRCVSSLTNKKVGDIIGFGDAGVYVALNNGNGTFGPVKRVIDNFGYNQGWRVDKHPRFVVDLTGDGCADIVGFGENSVWACMNKGDGTFGPIMKLIDDMTVSKGWTLQKTVRYAANLYL"}}, "test_in_all_cases": "glycan array binding signal (z-score within array); higher = stronger binding", "settings_in_all_cases": "glycan notation: IUPAC condensed, linker removed", "key": {"[1]": {"target": "Neu5Ac(a2-3)Gal(b1-4)GlcNAc(b1-3)[Neu5Ac(a2-3)Gal(b1-4)GlcNAc(b1-6)]GalNAc", "summary_of_the_method": "(§1)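 The binding signal is a Z-score computed within each array. Data were drawn from 3228 arrays in the Consortium for Functional Glycomics database, restricted to those with a known protein sequence. Scores were averaged over arrays of the same protein sequence at different concentrations or buffers, and over linkers, and negative values can be taken as non-binding.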"}, "[2]": {"target": "Neu5Ac(a2-3)Gal(b1-4)GlcNAc(b1-6)GalNAc", "summary_of_the_method": "as §1"}, "[3]": {"target": "Neu5Ac(a2-3)Gal(b1-4)GlcNAc(b1-6)[Gal(b1-3)]GalNAc", "summary_of_the_method": "as §1"}, "[4]": {"target": "Neu5Ac(a2-3)Gal(b1-4)GlcNAc(b1-6)[Neu5Ac(a2-3)Gal(b1-3)]GalNAc", "summary_of_the_method": "as §1"}, "[5]": {"target": "Neu5Ac(a2-3)Gal(b1-4)GlcNAc6S", "summary_of_the_method": "as §1"}, "[6]": {"target": "Neu5Ac(a2-3)Gal(b1-4)[Fuc(a1-3)]GlcNAc", "summary_of_the_method": "as §1"}, "[7]": {"target": "Neu5Ac(a2-3)Gal(b1-4)[Fuc(a1-3)]GlcNAc(b1-2)Man", "summary_of_the_method": "as §1"}, "[8]": {"target": "Neu5Ac(a2-3)Gal(b1-4)[Fuc(a1-3)]GlcNAc(b1-3)Gal", "summary_of_the_method": "as §1"}, "[9]": {"target": "Neu5Ac(a2-3)Gal(b1-4)[Fuc(a1-3)]GlcNAc(b1-3)Gal(b1-4)GlcNAc", "summary_of_the_method": "as §1"}, "[10]": {"target": "Neu5Ac(a2-3)Gal(b1-4)[Fuc(a1-3)]GlcNAc(b1-3)Gal(b1-4)[Fuc(a1-3)]GlcNAc(b1-3)Gal(b1-4)[Fuc(a1-3)]GlcNAc", "summary_of_the_method": "as §1"}, "[11]": {"target": "Neu5Ac(a2-3)Gal(b1-4)[Fuc(a1-3)]GlcNAc(b1-3)GalNAc", "summary_of_the_method": "as §1"}, "[12]": {"target": "Neu5Ac(a2-3)Gal(b1-4)[Fuc(a1-3)]GlcNAc(b1-6)[Gal(b1-3)]GalNAc", "summary_of_the_method": "as §1"}, "[13]": {"target": "Neu5Ac(a2-3)Gal(b1-4)[Fuc(a1-3)]GlcNAc(b1-6)[Neu5Ac(a2-3)Gal(b1-3)]GalNAc", "summary_of_the_method": "as §1"}, "[14]": {"target": "Neu5Ac(a2-3)Gal(b1-4)[Fuc(a1-3)]GlcNAc6S", "summary_of_the_method": "as §1"}, "[15]": {"target": "Neu5Ac(a2-3)Gal6S(b1-4)GlcNAc", "summary_of_the_method": "as §1"}, "[16]": {"target": "Neu5Ac(a2-3)Gal6S(b1-4)[Fuc(a1-3)]GlcNAc", "summary_of_the_method": "as §1"}, "Neu5Ac(a2-3)GalNAc": {"target": "Neu5Ac(a2-3)GalNAc", "summary_of_the_method": "as §1"}, "[17]": {"target": "Neu5Ac(a2-3)GalNAc(b1-4)GlcNAc", "summary_of_the_method": "as §1"}, "[18]": {"target": "Neu5Ac(a2-3)[GalNAc(b1-4)]Gal(b1-4)Glc", "summary_of_the_method": "as §1"}, "[19]": {"target": "Neu5Ac(a2-3)[GalNAc(b1-4)]Gal(b1-4)GlcNAc", "summary_of_the_method": "as §1"}, "[20]": {"target": "Neu5Ac(a2-3)[GalNAc(b1-4)]Gal(b1-4)GlcNAc(b1-3)GalNAc", "summary_of_the_method": "as §1"}, "[21]": {"target": "Neu5Ac(a2-3)[Neu5Ac(a2-6)]GalNAc", "summary_of_the_method": "as §1"}, "Neu5Ac(a2-6)Gal": {"target": "Neu5Ac(a2-6)Gal", "summary_of_the_method": "as §1"}, "[22]": {"target": "Neu5Ac(a2-6)Gal(b1-3)GlcNAc(b1-3)[Gal(b1-4)GlcNAc(b1-6)]Gal(b1-4)Glc", "summary_of_the_method": "as §1"}, "Neu5Ac(a2-6)Gal(b1-4)Glc": {"target": "Neu5Ac(a2-6)Gal(b1-4)Glc", "summary_of_the_method": "as §1"}, "[23]": {"target": "Neu5Ac(a2-6)Gal(b1-4)GlcNAc", "summary_of_the_method": "as §1"}, "[24]": {"target": "Neu5Ac(a2-6)Gal(b1-4)GlcNAc(b1-2)Man", "summary_of_the_method": "as §1"}, "[25]": {"target": "Neu5Ac(a2-6)Gal(b1-4)GlcNAc(b1-2)Man(a1-3)Man(b1-4)GlcNAc(b1-4)GlcNAc", "summary_of_the_method": "as §1"}, "[26]": {"target": "Neu5Ac(a2-6)Gal(b1-4)GlcNAc(b1-2)Man(a1-3)[Gal(b1-4)GlcNAc(b1-2)Man(a1-6)]Man(b1-4)GlcNAc(b1-4)GlcNAc", "summary_of_the_method": "as §1"}, "[27]": {"target": "Neu5Ac(a2-6)Gal(b1-4)GlcNAc(b1-2)Man(a1-3)[GlcNAc(b1-2)Man(a1-6)]Man(b1-4)GlcNAc(b1-4)GlcNAc", "summary_of_the_method": "as §1"}, "[28]": {"target": "Neu5Ac(a2-6)Gal(b1-4)GlcNAc(b1-2)Man(a1-3)[GlcNAc(b1-4)][Neu5Ac(a2-6)Gal(b1-4)GlcNAc(b1-2)Man(a1-6)]Man(b1-4)GlcNAc(b1-4)GlcNAc", "summary_of_the_method": "as §1"}}, "note": "The other results are listed elsewhere or left out.", "data": [{"binder": "B1", "values": [{"measurement": "glycan array binding signal (z-score)", "setting": "[1]", "result": 0.13}, {"measurement": "glycan array binding signal (z-score)", "setting": "[2]", "result": -0.34}, {"measurement": "glycan array binding signal (z-score)", "setting": "[3]", "result": -0.306}, {"measurement": "glycan array binding signal (z-score)", "setting": "[4]", "result": -0.244}, {"measurement": "glycan array binding signal (z-score)", "setting": "[5]", "result": 0.109}, {"measurement": "glycan array binding signal (z-score)", "setting": "[6]", "result": -0.259}, {"measurement": "glycan array binding signal (z-score)", "setting": "[7]", "result": -0.364}, {"measurement": "glycan array binding signal (z-score)", "setting": "[8]", "result": -0.252}, {"measurement": "glycan array binding signal (z-score)", "setting": "[9]", "result": -0.263}, {"measurement": "glycan array binding signal (z-score)", "setting": "[10]", "result": -0.297}, {"measurement": "glycan array binding signal (z-score)", "setting": "[11]", "result": -0.331}, {"measurement": "glycan array binding signal (z-score)", "setting": "[12]", "result": -0.546}, {"measurement": "glycan array binding signal (z-score)", "setting": "[13]", "result": -0.34}, {"measurement": "glycan array binding signal (z-score)", "setting": "[14]", "result": -0.13}, {"measurement": "glycan array binding signal (z-score)", "setting": "[15]", "result": -0.236}, {"measurement": "glycan array binding signal (z-score)", "setting": "[16]", "result": -0.302}, {"measurement": "glycan array binding signal (z-score)", "setting": "Neu5Ac(a2-3)GalNAc", "result": -0.365}, {"measurement": "glycan array binding signal (z-score)", "setting": "[17]", "result": -0.351}, {"measurement": "glycan array binding signal (z-score)", "setting": "[18]", "result": -0.347}, {"measurement": "glycan array binding signal (z-score)", "setting": "[19]", "result": -0.277}, {"measurement": "glycan array binding signal (z-score)", "setting": "[20]", "result": -0.356}, {"measurement": "glycan array binding signal (z-score)", "setting": "[21]", "result": -0.1}, {"measurement": "glycan array binding signal (z-score)", "setting": "Neu5Ac(a2-6)Gal", "result": -0.26}, {"measurement": "glycan array binding signal (z-score)", "setting": "[22]", "result": -0.349}, {"measurement": "glycan array binding signal (z-score)", "setting": "Neu5Ac(a2-6)Gal(b1-4)Glc", "result": -0.355}, {"measurement": "glycan array binding signal (z-score)", "setting": "[23]", "result": -0.396}, {"measurement": "glycan array binding signal (z-score)", "setting": "[24]", "result": -0.354}, {"measurement": "glycan array binding signal (z-score)", "setting": "[25]", "result": -0.355}, {"measurement": "glycan array binding signal (z-score)", "setting": "[26]", "result": -0.362}, {"measurement": "glycan array binding signal (z-score)", "setting": "[27]", "result": 0.537}, {"measurement": "glycan array binding signal (z-score)", "setting": "[28]", "result": -0.344}]}]}
